The other results are listed elsewhere or left out. Many values rest on one well or one pass, so single values are uncertain.
Assays:
Experiment in all cases: cell count relative to DMSO control; melanoma cells; higher = more viable cells
Settings in all cases: library dose: standard library concentration; 72 h
G361 = test system: G361
IPC-298 = test system: IPC-298
IST-MEL1 = test system: IST-MEL1
LB2518-MEL = test system: LB2518-MEL
LOXIMVI = test system: LOXIMVI
MEL-HO = test system: MEL-HO
MZ2-MEL = test system: MZ2-MEL
MeWo = test system: MeWo
RPMI7951 = test system: RPMI7951
RVH-421 = test system: RVH-421
SkMel28 = test system: SkMel28
SkMel2 = test system: SkMel2
SkMel30 = test system: SkMel30
SkMel5 = test system: SkMel5
UACC257 = test system: UACC257
UACC62 = test system: UACC62
WM115 = test system: WM115
WM1716 = test system: WM1716
WM1745 = test system: WM1745
WM3526 = test system: WM3526
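Note: cells treated in 1,536-well plates, then fixed and DAPI-stained, with nuclei counted from automated high-throughput microscope images.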

Row | Compound | cell count (G361) | cell count (IPC-298) | cell count (IST-MEL1) | cell count (LB2518-MEL) | cell count (LOXIMVI) | cell count (MEL-HO) | cell count (MZ2-MEL) | cell count (MeWo) | cell count (RPMI7951) | cell count (RVH-421) | cell count (SkMel28) | cell count (SkMel2) | cell count (SkMel30) | cell count (SkMel5) | cell count (UACC257) | cell count (UACC62) | cell count (WM115) | cell count (WM1716) | cell count (WM1745) | cell count (WM3526)
1 | C/C(O)=C(\C#N)C(=O)Nc1cc(Br)ccc1Br + CCCCCCCCCCCC1=C(O)C(=O)C=C(O)C1=O [Embelin] (first compound 10 µM, partner dose 6 µM) | 83.5% | 71.1% | 73.6% | 80.6% | 87.1% | 83% | 77.7% | 88.4% | 80.8% | 81% | 71.4% | 96.6% | 86.8% | 99.4% | 76.9% | 80.5% | 77.5% | 88% | 92.1% | 93.8%
2 | Nc1nc(F)nc2c1ncn2[C@@H]1O[C@H](CO)[C@@H](O)[C@@H]1O [fludarabine] + C[As](C)SC[C@H](NC(=O)CC[C@H](N)C(=O)O)C(=O)NCC(=O)O [Darinaparsin] (first compound 1 µM, partner dose 2 µM) | 74.8% | 73.4% | 67% | 83.9% | 53.2% | 80.6% | 98.2% | 80.3% | 62.4% | 67.1% | 2.62% | 1.78% | 14.3% | 24% | 30% | 52.3% | 67.3% | 63.5% | 101% | 16.9%
3 | Cc1ccc(NC(=O)c2cccc(N(C)C)c2)cc1NC(=O)c1ccc(O)cc1 + C/C(O)=C(\C#N)C(=O)Nc1cc(Br)ccc1Br [LFM-A13] (first compound 10 µM, partner dose 10 µM) | 81.6% | 100% | 77.7% | 85.7% | 109% | 94.8% | 85.9% | 93.1% | 72% | 103% | 58.2% | 99.8% | 86.4% | 83.4% | 111% | 86% | 101% | 100% | 68.1% | 82%
4 | C=CCNC1=C2C[C@@H](C)C[C@H](OC)[C@H](O)[C@@H](C)/C=C(\C)[C@H](OC(N)=O)[C@@H](OC)/C=C\C=C(/C)C(=O)NC(=CC1=O)C2=O [Tanespimycin] + C[As](C)SC[C@H](NC(=O)CC[C@H](N)C(=O)O)C(=O)NCC(=O)O [Darinaparsin] (first compound 0.01 µM, partner dose 2 µM) | 51.6% | 80.5% | 47.3% | 56.5% | 87.3% | 70.3% | 88.8% | 41.9% | 13.5% | 47.8% | 44.4% | 74.7% | 78.2% | 34.6% | 77% | 52.4% | 22.7% | 54.5% | 57.2% | 49.8%
5 | COc1cc([C@@H]2c3cc4c(cc3[C@@H](O[C@@H]3O[C@@H]5CO[C@@H](C)O[C@H]5[C@H](O)[C@H]3O)[C@H]3COC(=O)[C@H]23)OCO4)cc(OC)c1O [etoposide] + C[C@]12O[C@H](C[C@]1(O)CO)n1c3ccccc3c3c4c(c5c6ccccc6n2c5c31)CNC4=O [Lestaurtinib] (first compound 0.1 µM, partner dose 0.02 µM) | 103% | 72.5% | 99.8% | 78.1% | 156% | 87.9% | 82% | 65.5% | 88% | 106% | 63.9% | 91.4% | 75.3% | 47.8% | 85% | 53.7% | 71% | 70% | 78.3% | 77.9%
6 | NCC(=O)Nc1ccc(-n2nc(C(F)(F)F)cc2-c2ccc3c(ccc4ccccc43)c2)cc1 + Cc1cc(SCc2sc(-c3ccc(C(F)(F)F)c(F)c3)nc2C)ccc1OCC(=O)O [GW0742] (first compound 5 µM, partner dose 10 µM) | 57.9% | 50.6% | 82.1% | 8.09% | 66.3% | 71.7% | 67.7% | 84.8% | 70.9% | 76.2% | 2.87% | 5.39% | 18.9% | 60.4% | 73.7% | 64.9% | 92.2% | 72.4% | 67.7% | 40.1%
7 | NC(=O)c1ccc(N(C(N)=O)c2c(F)cccc2F)nc1-c1ccc(F)cc1F + N.N.[Cl][Pt][Cl] [cisplatin] (first compound 2 µM, partner dose 8 µM) | 103% | 104% | 109% | 98.8% | 105% | 88.4% | 108% | 104% | 97.3% | 74.6% | 107% | 113% | 106% | 93.2% | 85.3% | 114% | 117% | 93.1% | 77.9% | 81.3%
8 | O=C(/C=C/c1cccnc1)NCCCCC1CCN(C(=O)c2ccccc2)CC1 + N.N.[Cl][Pt][Cl] [cisplatin] (first compound 0.05 µM, partner dose 8 µM) | 2.53% | 34.2% | 14.4% | 52.5% | 25.7% | 21.4% | 21.4% | 92% | 95.6% | 11.8% | 83.2% | 18.4% | 102% | 109% | 94.2% | 62.3% | 95.9% | 67% | 117% | 114%
9 | N#Cc1c(O)c2c(-c3ccc(-c4ccccc4O)cc3)csc2[nH]c1=O + O=C(Oc1ccc([N+](=O)[O-])cc1)N1CCC(C(O)(c2ccc3c(c2)OCO3)c2ccc3c(c2)OCO3)CC1 [JZL184] (first compound 10 µM, partner dose 5 µM) | 107% | 109% | 106% | 144% | 87.2% | 105% | 110% | 92.1% | 112% | 107% | 138% | 110% | 79.3% | 82.5% | 108% | 97.9% | 88.6% | 108% | 108% | 83%

Source: the supplement of paper PMC4604168 (melanoma cell lines)
